In all, about 52,000 compounds went through this assay and about 4,300 (8.3%) were called active. No stated cut-off is given here; in the data, active means survival mostly below about 52% (no sharp cut-off); inactive means mostly above about 56%. The list shows a part of the results.

This assay has as its system DeltatarO mutant. The assay can be described thus: growth inhibition of S. aureus wild type versus tarO mutant, primary screen, teichoic acid synthesis inhibitors, RN4220, OD600 (AID 463173). Particulars: OD600, 18 h, hits give low values, screened at 18.75 µg/mL (by protocol).
On to `Cc1ccc2c(c1)-c1nc(-c3ccc(Cl)cc3)cc(-c3coc4ccccc4c3=O)c1CO2`, for which the survival was inactive: 130%.

With `Cc1ccc2c(c1)N(CCC(=O)NCc1ccc(F)cc1)C(=O)CO2`, the survival is inactive: 62%.

Regarding `COc1cccc(CNC(=O)c2ccc(CSc3nc4ccncc4n3Cc3cccc(C)c3)cc2)c1`, the survival is inactive: 89%.

Turning to `CCOCCc1nn2c(=O)cc(COC(=O)CNC(=O)c3ccc(C(C)(C)C)cc3)nc2s1`, the survival was inactive: 113%.

As to `Cc1ccc(Cl)cc1N1CCN(S(=O)(=O)c2ccc3[nH]c4c(c3c2)CCCCC4)CC1`, the survival is inactive: 62%.

As for `COc1cc(NC(=O)CCc2c(C)nn(-c3ccc4nncn4n3)c2C)cc(OC)c1OC`, the survival is inactive: 83%.

For `COc1ccc2ncc(C(=O)O)c(NCCO)c2c1`, the survival was inactive: 69%.

Take `Fc1ccc(-n2ncc3c(NCCCN4CCOCC4)ncnc32)cc1`: the survival was inactive: 64%.

`Cn1ccnc1SCC(=O)n1c2c(c3ccccc31)CCCC2`: the survival was inactive: 100%.

Turning to `COc1cc(-c2nnc(SCCOc3ccc(Cl)cc3C)o2)cc(OC)c1OC`, the survival is inactive: 104%.

With `CCOC(=O)c1c(NC(=O)CSc2cn(CCNC(=O)c3ccccc3F)c3ccccc23)sc2c1CCC2`, the survival was inactive: 89%.

For `COC(=O)c1cc(S(=O)(=O)NCC2CCN(Cc3ccc(F)cc3)CC2)cn1C`, the survival is inactive: 109%.

With `O=C(Nc1ccc2nc(SCC(=O)N3CCCc4ccccc43)sc2c1)c1cccc(F)c1`, the survival is inactive: 84%.

As to `Cc1cccc(OCC(=O)Nc2c(C)ccc3nsnc23)c1C`, the survival is inactive: 98%.

For the molecule `CCc1ccc(S(=O)(=O)c2nnn3c2nc(N2CCC(C)CC2)c2cc(Cl)ccc23)cc1`, the survival was inactive: 115%.

Regarding `O=C(Cn1nc(-c2ccc3c(c2)OCCO3)ccc1=O)Nc1ccc(N2CCOCC2)cc1`, the survival was inactive: 110%.

In the case of `COc1ccc(-c2cc(C(=O)NCc3cc(OC)c(OC)c(OC)c3)[nH]n2)cc1`, the survival is inactive: 74%.

As to `Cc1ccc(Cl)c2c1N[C@@H](c1ccc(C(=O)O)cc1)[C@H]1CC=C[C@@H]21`, the survival was active: -10%.

On to `O=C(CSc1ncc(S(=O)(=O)c2ccc(Br)cc2)c(=O)[nH]1)NCc1ccc(Cl)cc1`, for which the survival was inactive: 76%.

As to `Cc1ccc(C)c(NC(=O)CCN2C(=O)c3ccccc3Sc3ncccc32)c1`, the survival is inactive: 79%.

With `O=C(Nc1ccccc1)C(Cc1ccccc1)N1Cc2ccccc2C1=O` (centres undefined), the survival is inactive: 77%.

As for `Cc1c(CC(=O)NCCc2ccccc2F)c(=O)oc2c(C)c3occ(C(C)(C)C)c3cc12`, the survival was inactive: 51%.

`O=C(NC(=S)NC1CC1)c1cccnc1`: the survival is inactive: 65%.

For `COc1ccc(NC(=O)CSc2cn(CC(=O)N3CCOCC3)c3ccccc23)cc1OC`, the survival is inactive: 87%.

For the molecule `COc1cccc(N2CCN(C(=O)c3ccc4c(=O)n(CCc5ccccc5)c(=O)[nH]c4c3)CC2)c1`, the survival was inactive: 74%.

As to `CC(C)COC(=O)/C(C#N)=C\c1ccc(-c2ccccc2Cl)o1`, the survival is inactive: 67%.

In the case of `COc1ccccc1CNS(=O)(=O)c1cc(C(=O)Nc2cccc(C(F)(F)F)c2)ccc1F`, the survival was inactive: 77%.

For `COC(=O)Cn1c(O)c(N=NC(=O)c2ccc3c(c2)OCO3)c2ccccc21`, the survival is inactive: 80%.

Turning to `Cc1cccc(N2C(=O)CSC23C(=O)N(Cc2cccc(F)c2)c2ccccc23)c1` (centres undefined), the survival was inactive: 95%.

Regarding `Cc1ccc(C)c(CSc2nc3ncccc3[nH]2)c1`, the survival was inactive: 73%.

Regarding `Cc1cccc(-c2noc(CN(C(=O)COc3ccc(C(C)C)cc3)C(C)C)n2)c1`, the survival is active: 11%.

As for `CCOC(=O)c1c(C)n(-c2ccccc2)c2ccc(OC(=O)c3ccccc3)cc12`, the survival is active: 3%.

`CCNc1nc(NC(C)CC)nc(ON=C(C)C)n1` (centres undefined): the survival was inactive: 99%.

Turning to `COc1ccc(C2=NS(=O)(=O)N(C)C(C(=O)Nc3cc(C)ccc3O)=C2)cc1OC`, the survival was inactive: 62%.

As for `Cc1nc(N2C(=O)c3oc4ccccc4c(=O)c3C2c2ccccc2F)sc1C` (centres undefined), the survival was inactive: 58%.

Take `O=C1CS/C(=N\N2CCOCC2)N1Cc1ccccc1`: the survival is inactive: 84%.

For the molecule `COc1cccc(N2CCN(S(=O)(=O)c3cc(Br)cc4c3N(C(=O)C3CC3)CC4)CC2)c1`, the survival is inactive: 82%.

For `COc1ccccc1C1C=C(c2ccc(F)cc2)Nc2nc(-c3ccc(Cl)cc3)nn21` (centres undefined), the survival was inactive: 60%.

As to `CCOc1ccc(CCNC(=O)CCc2c(C)nc3c4c(C)cc(C)nc4nn3c2C)cc1`, the survival was inactive: 72%.

Take `COc1cccc(NC(=O)NCc2ccc3c(c2)CCN3C(=O)c2ccccc2)c1`: the survival was active: 52%.

Take `Cc1cccc(C(=O)Nc2sc3c(c2C(=O)NCc2ccco2)CCCC3)c1`: the survival is inactive: 83%.

As to `Cc1ccc2[nH]c(=O)c3cc(C(=O)N4CCN(c5ccccc5)CC4)sc3c2c1`, the survival was inactive: 81%.

For `Cc1cc(C)c(Cn2c3ccccc3c3cnn(CC(=O)NC4CCC(C)CC4)c(=O)c32)c(C)c1` (centres undefined), the survival was inactive: 71%.

For the molecule `Cc1nc(-c2ccc(Cl)cc2)sc1CCNC(=O)C(=O)Nc1ccc(F)cc1F`, the survival is inactive: 73%.

As to `CCCCN1C(=O)c2[nH]nc(-c3ccccc3O)c2C1c1cccc(OCc2ccccc2)c1` (centres undefined), the survival is active: 18%.

`O=C(Cn1c(=O)oc2cc(S(=O)(=O)N3CCCCC3)ccc21)Nc1cccc(Cl)c1`: the survival was inactive: 81%.

Consider `Cc1ccccc1NC(=O)c1ccc(F)c(S(=O)(=O)N(C)Cc2ccccc2)c1`, for which the survival was inactive: 84%.

On to `CCc1ccc(NC(=O)c2cc(C(C)=O)n3ccccc23)cc1`, for which the survival was inactive: 83%.

On to `CC(C)c1ccc(C2N3CC4(C)CN2CC(c2ccccc2)(C3)C4=O)cc1` (centres undefined), for which the survival is inactive: 80%.

With `CCCc1nn2c(=O)cc(COC(=O)c3cccc(NC(=O)COc4ccc(F)cc4)c3)nc2s1`, the survival is inactive: 99%.

For the molecule `CCc1nn(-c2ccccc2)c2nc(-c3ccccc3OC)c3cc(OC)c(OC)cc3c12`, the survival is inactive: 107%.

On to `CCOC(=O)c1scc(-c2ccccc2)c1S(=O)(=O)Nc1ccccc1F`, for which the survival was inactive: 120%.

Regarding `Clc1cccc(N2CCN(c3ncnc4c3nc3n4CCCCC3)CC2)c1`, the survival was active: 11%.

Consider `CCOc1ccccc1CNS(=O)(=O)c1ccc2c(c1)CCCN2C(C)=O`, for which the survival is inactive: 76%.

Turning to `O=C(Cn1ccn(-c2ccc(F)c(F)c2)c(=O)c1=O)Nc1ccccc1F`, the survival was inactive: 65%.

For `Cc1ccc(-c2nc3cc(C(C)C)ccc3o2)cc1NC(=O)c1cc2ccccc2o1`, the survival is active: 19%.

For the molecule `CCc1ccc(CNC(=O)c2sc3ncccc3c2-n2c(C)ccc2C)cc1`, the survival was active: 0%.

Regarding `Cc1ccc(CN2CCc3nc(N4CCN(c5ncccn5)CC4)ncc3C2)cc1`, the survival was inactive: 117%.

In the case of `COc1cccc(NC(=O)C(C#N)Cc2cccs2)c1` (centres undefined), the survival is inactive: 110%.

As to `Cc1ccc(C)n1-c1nnc(N2CCCC(C(=O)NCc3ccc(Cl)cc3)C2)s1` (centres undefined), the survival was inactive: 71%.

On to `Cc1ccc(OCC(=O)Nc2ccc(S(=O)(=O)Nc3cc(C)nc(C)n3)cc2)c(Br)c1`, for which the survival was inactive: 97%.

Consider `O=C(CCSc1nc(-c2ccco2)cc(C(F)(F)F)n1)Nc1cccc(O)c1`, for which the survival was inactive: 122%.

`O=C(Nc1ccc2oc(-c3cccnc3)nc2c1)c1cccc(Br)c1`: the survival was inactive: 62%.

For the molecule `COc1cccc(NC(=O)CSc2nc3c(oc4ccccc43)c(=O)n2Cc2ccco2)c1`, the survival is inactive: 65%.

Regarding `Cc1ccc(N(CC(=O)NCCc2ccc(Cl)cc2)S(=O)(=O)N(C)C)cc1`, the survival was inactive: 101%.

Regarding `Cc1ccc(C(=O)N2CCC(C(=O)O)CC2)cc1`, the survival is inactive: 90%.

Take `CCOC(=O)C1CCN(c2ncnc3c2c(-c2ccccc2)cn3-c2cccc(C)c2)CC1`: the survival was inactive: 94%.

On to `Cc1oc2c(c(C)cc3oc(=O)c(CC(=O)NCCc4ccccc4F)c(C)c32)c1C`, for which the survival was inactive: 69%.

On to `CCc1ccc(NC(=O)CN2CCN(Cc3ccccc3)S2(=O)=O)cc1`, for which the survival is inactive: 68%.

Regarding `Cc1ccccc1-n1c(SCC(=O)Nc2ccc(Cl)cc2F)nnc1-c1cc2occc2n1C`, the survival was inactive: 88%.

In the case of `Cc1cccc(NC(=O)CCCn2c(C)c3cnn(-c4ccccc4)c(=O)c3c2C)c1C`, the survival was inactive: 71%.

In the case of `CCOCc1cn(CC(=O)c2ccc(OC(C)=O)c(OC(C)=O)c2)c(C)nc1=N`, the survival is inactive: 87%.

Regarding `CCOc1ccc(-n2c(Cc3ccccc3)nnc2SCc2nc(-c3ccccc3OC)no2)cc1`, the survival is inactive: 56%.

As for `COC(=O)c1cc2c(ccn2C)n1CC(=O)N(C1CCCCC1)C1CCCCC1`, the survival was inactive: 82%.

Turning to `CN1CCN(C(CNC(=O)c2cccc(F)c2)c2ccc3c(c2)OCO3)CC1` (centres undefined), the survival was inactive: 80%.

As for `O=C(Nc1cccs1)Nc1cc(C(F)(F)F)ccc1Cl`, the survival is active: 11%.

For the molecule `Cc1ccc(Cl)cc1N1CCN(C(=O)c2cnc(N3CCOCC3)c3ccccc23)CC1`, the survival is inactive: 113%.

Take `Cc1cc(C)c(NC(=O)C2CCN(c3nc4ccccc4[nH]3)CC2)c(C)c1`: the survival is inactive: 102%.

For `CC(C)CCNC(=O)CCCN1C(=O)c2ccccc2Sc2ncccc21`, the survival was inactive: 69%.

On to `COc1cc(-c2noc(CN3CCN(c4ccccc4)CC3)n2)cc(OC)c1OC`, for which the survival is inactive: 84%.

As for `O=C(O)CNCc1nc2ccccc2[nH]1`, the survival is inactive: 95%.

As for `N[n+]1cnn(CC(=O)c2ccc(Cl)cc2)c1`, the survival was inactive: 76%.

As for `Cc1cccc(NC(=O)C(=O)NCC(c2ccc3c(c2)OCO3)N2CCOCC2)c1C` (centres undefined), the survival was inactive: 87%.

Regarding `CCOC(=O)c1ccccc1NC(=O)N1CCc2c(sc(C)c2CC)C1c1ccccc1` (centres undefined), the survival was inactive: 124%.

`COc1ccccc1-c1nc2c(c(SCc3cccc(Cl)c3)n1)Cc1c(CO)cnc(C)c1O2`: the survival is inactive: 72%.

On to `Cc1cn2c(=O)cc(COC(=O)c3cccc(NC(=O)COc4ccccc4Cl)c3)nc2s1`, for which the survival is inactive: 99%.

With `COc1cc(OC)cc(C(=O)Oc2c(Sc3ccccc3)c(C)nn2C(C)(C)C)c1`, the survival was active: 43%.

Take `CCc1ccc(C2c3c(-c4ccccc4O)n[nH]c3C(=O)N2Cc2ccncc2)cc1` (centres undefined): the survival is active: 22%.

Regarding `CCOc1ccc(/C=C/c2nc(C#N)c(N(C)C)o2)cc1`, the survival was inactive: 102%.

Values taken from PubChem BioAssay AID463173 (ICCB-Longwood Screening Facility, Harvard Medical School, 2010).
